# Source: the supplement of paper PMC6609913
# Counter-ions that a name gives are not always drawn. ± gives the standard deviation of the averaged measurements. Over roughly 1,300 compounds, “normalised cell viability” has its median near 1; the lowest 2% begin near 0.15. Some of the results follow.
# System: V-C8 + BRCA2 (BRCA2-proficient hamster cells)
# Assay: normalised cell viability (fraction of plate median); higher = more viable cells (less toxic)
# Settings: 5 µM
# How it was run: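 Hamster V-C8 cells lacking BRCA2 and V-C8 cells with BRCA2 restored were seeded in 96-well plates. Library drugs (10 mM DMSO stocks) were added 24 h later at 5 μM in 100 μl medium, next to DMSO control wells, for 3 days (screen 1) or 6 days (screen 2). Cell viability was read by resazurin assay, median-plate normalised (modified robust per cent of sample), and triplicate wells were averaged.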
SMILES,normalised cell viability (treatment time: 3 days),normalised cell viability (treatment time: 6 days)
c1ccc2c(c1)OCC(C1=NCCN1)O2 (stereo unspecified) [Idazoxan hydrochloride],0.916 ± 0.026,0.966 ± 0.046
CCCCCC[C@H]1C(=O)O[C@H](C)[C@H](NC(=O)c2cccc(NC=O)c2O)C(=O)O[C@@H](C)[C@@H]1OC(=O)CC(C)C [Antimycin A],0.148 ± 0.012,0.124 ± 0.011
Cc1cc(C(C#N)c2ccc(Cl)cc2)c(Cl)cc1NC(=O)c1cc(I)cc(I)c1O (stereo unspecified) [Closantel],0.927 ± 0.065,0.823 ± 0.11
C[C@@H]1C[C@@H]([C@H](O)CC2CC(=O)NC(=O)C2)C(=O)[C@@H](C)C1 [Cycloheximide],0.146 ± 0.008,0.138 ± 0.016
CC[C@@H](CO)NC(=O)[C@@H]1C=C2c3cccc4[nH]cc(c34)C[C@H]2N(C)C1 [Methylergometrine maleate],1.05 ± 0.044,1.05 ± 0.047
O=c1[nH]oc2c1CCNC2 [THIP Hydrochloride],0.981 ± 0.024,1 ± 0.023
CC(N)C(O)c1ccccc1 (stereo unspecified) [Phenylpropanolamine hydrochloride],0.938 ± 0.032,1.1 ± 0.023
O=C(CCCN1CCC2(CC1)C(=O)NCN2c1ccccc1)c1ccc(F)cc1 [Spiperone],1.07 ± 0.04,0.997 ± 0.072
C=C1CC[C@@]2(O)[C@H]3Cc4ccc(O)c5c4[C@@]2(CCN3CC2CC2)[C@H]1O5 [Nalmefene hydrochloride],1 ± 0.043,1.07 ± 0.15
O=[N+]([O-])O[C@H]1CO[C@H]2[C@@H]1OC[C@H]2O[N+](=O)[O-] [Isosorbide dinitrate],0.863 ± 0.11,0.97 ± 0.053
NCC1(CC(=O)O)CCCCC1 [Gabapentin],0.964 ± 0.058,1.2 ± 0.018
CC(O)(CS(=O)(=O)c1ccc(F)cc1)C(=O)Nc1ccc(C#N)c(C(F)(F)F)c1 (stereo unspecified) [Bicalutamide],0.872 ± 0.096,1.01 ± 0.022
CCOC(=O)c1cncn1[C@H](C)c1ccccc1 [Etomidate],0.957 ± 0.053,1.03 ± 0.077
